Several values for one entry are separate records, joined by “and”; a condition that tells them apart may be missing. Equal values may be shown once. The campaign covered roughly 420,000 compounds. About 64,000 (15%) were called active. Inconclusive results, whose numbers are uncertain, are shown with a selection of clear calls. Calls come from the whole dose curve; as a rule, active = well fitted inhibition curve with a large enough effect; inconclusive = small, poorly fitted or top-dose-only effect; inactive = flat fitted curve, though single readings scatter. No potency is given beside an inconclusive call; the fits are too rough.
Assay: qHTS for Inhibitors of human tyrosyl-DNA phosphodiesterase 1 (TDP1): qHTS in cells in absence of CPT; note: nearly all actives have a fitted effect of over 55% in size
Conditions: DT40 Tdp1-/- hTDP1 cells, no CPT, ATP luminescence, 48 h; activity change, negative = growth inhibition: at 46.2 µM (top of the series) unless noted
Outline: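 Cells were dispensed at 400 per well, compounds added by pin tool, plates incubated ≥48 hr at 37 °C, then CellTiter-Glo added for 30 min at room temperature before luminescence reading. Line: DT40 Tdp1-/- complemented with hTDP1; camptothecin omitted.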
With COC(=O)CC1N(S(=O)(=O)c2ccc(C)cc2)c2ccccc2C1(C(=O)OC)C(=O)OC (stereo not given) the Potency was inconclusive [inhibitor, single point]. For Cc1ccccc1CNC(=O)CN(c1cccc([N+](=O)[O-])c1)S(C)(=O)=O, the “activity change, negative = growth inhibition” value was inactive: -28.6%. For COc1cccc(CN(C)C(=O)C(CCSC)NS(=O)(=O)c2ccc3c(c2)OCCO3)c1OC (stereo not given), the Potency was active: 13 µM. For COc1ccc(NS(=O)(=O)c2cccc(C(=O)OCC(=O)N3CCN(c4ccc(OC)cc4)CC3)c2)cc1, the Potency was active: 13 µM. In the case of CC1Cc2nc(SCC(=O)Nc3ccccc3F)n(C)c(=O)c2S1 (stereo not given), the Potency is reported as inconclusive [inhibitor, single point]. With Cc1onc(-c2ccccc2)c1C(=O)Nc1cccc(S(=O)(=O)N2CCCCC2)c1 the Potency was inconclusive [inhibitor, single point]. With CCc1nc2c(OCc3ccccc3)cccn2c1N(C)C(=O)c1ccc2c(c1)OCO2 the Potency was inconclusive [inhibitor, single point]. For COc1c(Cl)cc(C(=O)N(Cc2ccccc2F)C2CCS(=O)(=O)C2)cc1Cl (stereo not given), the Potency was inconclusive [inhibitor, single point]. For CC(=O)c1ccc(OCC(O)CNCc2ccc3c(c2)OCO3)cc1 (stereo not given), the “activity change, negative = growth inhibition” value was inactive: -12.9%. For COc1ccccc1-c1cc(NC=O)c2ncc(-c3ccc(F)cc3)n2c1, the Potency was active: 18.4 µM. For O=C(Nc1ccc(O)c(-c2nc3ccccc3s2)c1)c1cccs1, the “activity change, negative = growth inhibition” value was inactive: -21.5%. In the case of O=c1[nH]c(SCc2ccc(F)cc2Cl)nc2ccccc12, the Potency is reported as active: 20.6 µM. For Oc1[nH]c2c(Cl)cc(Cl)cc2c1N=NC(=S)NCC1CCCO1 (stereo not given), the Potency was active: 4.61 µM. For COc1ccc(C#Cc2cccc(-c3nc(C(=O)NCc4ccc(Oc5ccccc5)cc4)cc4c3[C@@H](CCO)N(S(=O)C(C)(C)C)C4)c2)cc1OC (stereo not given in full), the Potency was inconclusive [inhibitor, single point]. In the case of Cc1ccc(CN2[C@@H](Cc3ccccc3)C(=O)CS2(=O)=O)cc1, the Potency is reported as inconclusive [inhibitor, single point]. For Cc1cc(OCCCC(=O)NCCc2nnc3ccccn23)ccc1Cl, the Potency was active: 16.4 µM. In the case of COc1ccc2[nH]cc(CCNc3ccnc(-c4cccnc4)n3)c2c1, the Potency is reported as inconclusive [inhibitor, single point]. With CN(c1ccc(OCC(=O)OCC(=O)Nc2c(F)c(F)c(F)c(F)c2F)cc1)S(=O)(=O)c1ccc(F)cc1 the “activity change, negative = growth inhibition” value was inactive: -18.9%. With CCC(=O)N1CCc2cc(-c3csc(NC(=O)c4ccco4)n3)ccc21 the Potency was active: 13 µM. With Cc1ccc(-n2nc3c(=O)n(CC(=O)NCCc4ccccc4C)nc(C)c3c2C)cc1 the Potency was inconclusive [inhibitor, single point]. For COc1ccc(C(=O)N2CCC3(CCCN(C(=O)Nc4cccc(C#N)c4)C3)CC2)cc1, the Potency was inconclusive [inhibitor, partial curve]. For Cc1ccc(-c2nn(-c3ccccc3)cc2/C=C/C(=O)OCC(=O)NC2CC2)o1, the Potency was inconclusive [inhibitor, partial curve]. With CC(=O)c1c(C)[nH]c(C(=O)Nc2cccc(S(=O)(=O)N(C)C)c2)c1C the Potency was inconclusive [inhibitor, partial curve, poor fit]. With O=C(NNC(=O)c1ccc(F)c(S(=O)(=O)N2CCOCC2)c1)c1ccc([N+](=O)[O-])cc1 the Potency was inconclusive [inhibitor, full curve, poor fit]. In the case of Cc1ccc(C)c(CNC(=O)Nc2ccccc2)c1, the “activity change, negative = growth inhibition” value is reported as inactive: -24.1%. For CC(C)C[C@@H]1Cc2[nH]c(=S)[nH]c(=O)c2[C@H](C)O1, the Potency was inconclusive [inhibitor, single point]. With CN(C)C(=O)c1cc(C(=O)c2ccccc2F)c[nH]1 the “activity change, negative = growth inhibition” value was inactive: -4%. For COc1cccc(-c2cc(C(=O)NCCCn3ccnc3)c3ccccc3n2)c1, the Potency was inconclusive [inhibitor, single point]. With CCOc1ccc(NC(=O)CN(C)C(=O)c2cn(-c3ccc(C)cc3)nc2-c2cccc(OC)c2)cc1OCC the Potency was inconclusive [inhibitor, single point]. For CC1Nc2ncnc(N3CCc4ccccc4C3)c2N(Cc2ccc(Br)cc2)C1=O (stereo not given), the Potency was active: 16.4 µM and active: 23.1 µM. In the case of CCCN(CC(=O)Nc1ccccc1OC)C(=O)Cn1c(=O)oc2ccccc21, the “activity change, negative = growth inhibition” value is reported as inactive: -24.7%. With COc1cccc(C#Cc2cnc3c(c2)C(=O)N([C@@H](C)CO)C[C@H](C)[C@H](CN(C)C(=O)C2CCC2)O3)c1 the Potency was active: 13 µM. With O=c1cnc2cnc(Oc3cccc(Cl)c3)nc2n1CCc1ccccc1 the “activity change, negative = growth inhibition” value was inactive: -15.1%. For Cn1c(=O)c2c(nc(SCC(=O)Nc3ccc(F)cc3)n2Cc2ccccc2F)n(C)c1=O, the Potency was inconclusive [inhibitor, partial curve]. With COCCn1c(C(C)C)nc2sc3ccccc3c(=O)c2c1=O the “activity change, negative = growth inhibition” value was inactive: -27%. In the case of O=C(NC(O)C(=O)c1ccccc1)c1ccccn1 (stereo not given), the Potency is reported as inconclusive [inhibitor, single point]. In the case of O=C1NCCN(CC2CCN(CC3CCCC3)CC2)C1=O, the “activity change, negative = growth inhibition” value is reported as inactive: -4.45%. With Cc1ccc(NC(=O)C2CC(=O)n3ncnc3N2)cc1C (stereo not given) the “activity change, negative = growth inhibition” value was inactive: -2.35%. With CC(C)(C)C1CCN2CCC[C@](c3ccccc3)(C1)[C@@]21CO1 (stereo not given in full) the Potency was inconclusive [inhibitor, single point]. In the case of COc1ccc(/C=C/C(=O)N2CCCc3ccccc32)c(OC)c1, the Potency is reported as inconclusive [inhibitor, partial curve]. For COc1cccc(-c2cc(C(=O)NCc3ccco3)c3ccccc3n2)c1, the Potency was inconclusive [inhibitor, single point]. With Cc1oc2ccc(NS(=O)(=O)c3ccc(C(C)(C)C)cc3)cc2c1C(=O)Nc1ccccc1 the Potency was active: 18.4 µM. For COc1ccc(NC(=O)c2c(C(F)(F)F)nn(C)c2Cl)cc1, the Potency was inconclusive [inhibitor, single point]. In the case of CSCCC(c1nnnn1-c1c(C)cccc1C)N1CCN(C/C=C/c2ccccc2)CC1 (stereo not given), the Potency is reported as active: 18.4 µM. With Cc1ccc(/C=C2\SC(=S)N(c3cccnc3)C2=O)cc1 the “activity change, negative = growth inhibition” value was inactive: 16.8%.

From PubChem BioAssay AID686978 (National Center for Advancing Translational Sciences (NCATS), 2013)
% is set by controls: 0 for no effect and ±100 for the full control effect; potency is the fitted concentration of half-maximal effect; tags give direction and shape of the fitted curve.
